Measurements taken from PubChem BioAssay AID1030 (National Center for Advancing Translational Sciences (NCATS), 2008).
Hit rate of the full screen: of about 220,000 compounds, about 16,000 (7.3%) were called active. The inconclusive results got no clear call from the source; some entries with a clear call stand among them for comparison. Calls follow the shape of the dose curve; as a rule, active = well fitted inhibition curve with a large enough effect (not every such curve was filed as active); inconclusive = small, poorly fitted or top-dose-only effect, or another doubt; inactive = no such curve, though single readings can be large or run the other way. Potencies of inconclusive entries are left out as doubtful fits.

target: Aldehyde dehydrogenase 1A1 (Homo sapiens) (UniProt P00352); experiment: qHTS Assay for Inhibitors of Aldehyde Dehydrogenase 1 (ALDH1A1); settings: Purified ALDH1A1, NADH fluorescence, propionaldehyde substrate; series mostly up to 75.3 µM; activity, negative = inhibition: at the top concentration;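 as to activity, negative = inhibition: plate controls were no enzyme wells and a reference inhibitor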
Potency is read from the fitted curve at half-maximal effect; tags tell the direction and shape of the fitted curve.

Sequence of UniProt P00352 (P00352 whole entry, looked up): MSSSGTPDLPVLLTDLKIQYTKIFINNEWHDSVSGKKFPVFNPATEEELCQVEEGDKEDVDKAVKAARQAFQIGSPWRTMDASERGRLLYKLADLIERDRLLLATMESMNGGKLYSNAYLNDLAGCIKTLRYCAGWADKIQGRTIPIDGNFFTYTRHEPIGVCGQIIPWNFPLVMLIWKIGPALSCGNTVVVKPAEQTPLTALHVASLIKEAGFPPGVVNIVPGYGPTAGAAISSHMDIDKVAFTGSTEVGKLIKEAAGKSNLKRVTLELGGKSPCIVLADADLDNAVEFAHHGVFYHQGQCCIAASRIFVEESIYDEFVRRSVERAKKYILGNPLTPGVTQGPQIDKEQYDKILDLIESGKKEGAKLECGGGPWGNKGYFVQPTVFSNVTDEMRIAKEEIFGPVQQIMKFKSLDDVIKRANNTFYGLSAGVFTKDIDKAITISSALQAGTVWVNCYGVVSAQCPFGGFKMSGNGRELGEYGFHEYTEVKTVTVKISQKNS

SMILES	Potency	activity, negative = inhibition
CCOc1ccc(/C(C)=N/N2C(=O)C(CC(=O)Nc3ccc(OC)cc3[N+](=O)[O-])SC2=Nc2cccc(C)c2C)cc1 (stereo unspecified)	active: 14.1 µM	
CC1(C)CC(=O)C2=C(C1)NC(Nc1nc3ccccc3o1)=NC21CCCC1	inconclusive [inhibitor, single point]	
CCOC(=O)c1ccc(NC(=O)N2CCOCC2)cc1	inconclusive [inhibitor, single point]	
O=C(CC1C(=O)NCCN1CC(c1ccccc1)c1ccccc1)NCCc1cn[nH]c1 (stereo unspecified)	active: 14.1 µM	
CCN1CCN(C(=O)c2cc3cc4cc(OC)ccc4nc3s2)CC1	inconclusive [inhibitor, partial curve]	
c1csc(-c2cn3c(n2)SCC3)c1	inconclusive [inhibitor, single point]	
COc1cc2c(cc1NC(=O)c1cccc(S(=O)(=O)N(C)C)c1)oc1ccccc12	inconclusive [inhibitor, single point]	
CCCN1CNC(=S)N(Cc2ccccc2)C1		inactive: 4.95%
CCOC(=O)C1CCCN(Cc2nc(N)nc(Nc3ccc(Cl)cc3)n2)C1 (stereo unspecified)		inactive: -1.12%
N#CC1=C(N)OC2=C(C(=O)CCC2)C12CCN(C(=O)OCc1ccccc1)CC2	inconclusive [inhibitor, partial curve]	
O=C(NC(=S)NN1CCCCC1c1cccnc1)c1ccc(Br)cc1 (stereo unspecified)	inconclusive [inhibitor, single point]	
Cc1cccc(-n2nnnc2SCC(=O)c2cc(C)n(Cc3ccco3)c2C)c1	active: 17.8 µM	
CCn1c(-c2ccc(F)cc2)n[nH]c1=S		inactive: -8.94%
COc1ccc(N2C(C)=CS/C2=C(/C#N)c2nnc(N3CCOCC3)n2-c2ccccc2)cc1	active: 22.4 µM	
N#Cc1cnc(SCC(=O)NNC(=O)COc2cccc3ccccc23)nc1N		inactive: -11%
CCOCCCn1c(=S)[nH]c2cc(C(=O)N3CCC(C(N)=O)CC3)ccc2c1=O		inactive: 13.6%
C=CCC1C=CC(OC(=O)OCC)C(COC(=O)OCC)O1 (stereo unspecified)		inactive: 11.4% [at 13.5 µM]
CC(C(=O)Nc1ccc(OCc2ccccc2)cc1)N1CCCC1 (stereo unspecified)		inactive: 1.94%
CSc1nc2ccc3nc(NC(=O)c4ccc(Cl)s4)sc3c2s1		inactive: 3.12%
Cc1ccc2c(c1)nnn2C1CCN(CC(=O)Nc2ccccc2N2CCOCC2)CC1	inconclusive [inhibitor, single point]	
Cc1[nH][nH]c(=O)c1C(c1ccc(-c2ccc(Cl)c(Cl)c2)o1)c1c(C)[nH][nH]c1=O	active: 10 µM	
COc1ccc(N(CC(=O)N/N=C/c2cc3ccc(OC)cc3nc2Cl)S(=O)(=O)c2ccccc2)cc1	inconclusive [inhibitor, single point]	
c1ccc(Nc2nc(-c3ccc4c(c3)OCO4)nc3ccccc23)cc1	inconclusive [inhibitor, single point]	

SMILES	Potency	activity, negative = inhibition
Cc1cc2cc(CNC(=O)Cc3ccc([N+](=O)[O-])cc3)ccc2n1C		inactive: -5.12%
CCC1(C(=O)OC)NC(c2ccco2)C2C(=O)N(c3ccc(F)cc3)C(=O)C21 (stereo unspecified)	active: 17.8 µM	
O=C(CCN1CCOCC1)NNC(=S)NC(=O)c1ccc(Br)cc1	inconclusive [inhibitor, single point]	
COc1ccc(CN2CCN(C(=O)c3cccs3)CC2)cc1Br	inconclusive [inhibitor, single point]	
CCCCc1ccc(NC(=S)N2CCCC(C)C2)cc1 (stereo unspecified)	inconclusive [inhibitor, single point]	
CCn1c(C)[n+](CCCS(=O)(=O)[O-])c2cc(Cl)c(Cl)cc21		inactive: 1.38%
CCc1cccc(NC(=O)CCCCCC2NC(=O)NC2C)c1 (stereo unspecified)	inconclusive [inhibitor, partial curve]	
NC(=O)CSc1nnc2ccc(-c3ccco3)nn12	inconclusive [inhibitor, single point]	
CNC(=O)c1ccsc1NC(=O)c1ccc2c(c1)CCCC2	inconclusive [inhibitor, partial curve, poor fit]	
CNCCCOc1ccc(Cl)cc1C(C)(C)C	inconclusive [inhibitor, partial curve]	
COC(=O)C1=C(C)Nc2nnnn2C1c1ccco1 (stereo unspecified)	active: 10 µM	
O=C(CCN1C(=O)S/C(=C\c2ccccc2)C1=O)Nc1ccc(S(=O)(=O)Nc2nccs2)cc1	inconclusive [inhibitor, single point]	
Cc1[nH]c2ccccc2c1/C=N/Nc1ccccn1	inconclusive [inhibitor, single point]	
O=C1CCN(c2ccc([N+](=O)[O-])cc2F)CC1	active: 8.91 µM	
Cc1ccc(-c2noc(CSc3nnc(-c4ccncc4)n3-c3ccc(F)cc3)n2)cc1	inconclusive [inhibitor, single point]	
N#Cc1c2c(c(NCCCN3CCOCC3)n3c1nc1ccccc13)CCC2	inconclusive [inhibitor, single point]	
c1ccn2cc(-c3ccc4c(c3)OCCO4)nc2c1	inconclusive [inhibitor, partial curve]	
COc1cc(OC)cc(C(=O)NCC(=O)OCC(=O)c2cc(OC)ccc2OC)c1	inconclusive [inhibitor, single point]	
O=C(CC1SC(=Nc2ccccc2)N(CCc2c[nH]c3ccccc23)C1=O)Nc1ccccc1F (stereo unspecified)		inactive: -9.82%
O=C(CSc1ccc(-c2ccco2)nn1)c1cccc([N+](=O)[O-])c1	active: 22.4 µM	
CC(C)(C)NC(=O)CSc1nc2ccc(NC(=O)CSc3nnnn3Cc3ccccc3)cc2s1	active: 3.98 µM	
COc1cccc(Cn2c(=O)c(-c3cc(F)cc(F)c3)nc3cnc(N4CCNCC4)nc32)c1	inconclusive [inhibitor, single point]	
CCCCCCOc1ccc(N2C(=O)CC(N3CCN(C(=O)c4ccco4)CC3)C2=O)cc1 (stereo unspecified)	inconclusive [inhibitor, single point]	
